The results in this text go back to patent US11542275B2, “Substituted imidazolidin-2-one derivatives as PRMT5 inhibitors” (Aurigene Discovery Technologies Limited, priority 2018, dated 2023).

What is called IC50 is the concentration that gives 50% inhibition. Higher therefore signals weaker potency in that assay.

The target of the assay is PRMT5/MEP50 Complex (Homo sapiens (Human), UniProt O14744). Kind of assay: PRMT5 inhibition based on TR-FRET assay. The format is biochemical. Particulars: 32 nM PRMT5:MEP50 complex, 50 nM Histone-H4 peptide, 1 μM SAM, 90 minutes at room temperature. The source says:
Protein arginine methyltransferase 5 (PRMT5) is a type II arginine methyltransferase that catalyze mono- and symmetric demethylation on arginine residues of histone or non-histone proteins in presence of S-adenosylmethionine (AdoMet or SAM) a cofactor responsible for donating the methyl group. PRMT5 is reported to be overexpressed in several human cancers. To identify compounds that inhibit the PRMT5 and decrease its activity, a TR-FRET based assay has been established. Time-resolved fluorescence resonance energy transfer (TR-FRET) HTS assays are homogeneous proximity assays where the interaction of two dye-labeled binding partners is detected by the energy transfer between a donor and an acceptor dye, and the subsequent light emission by the acceptor dye. PRMT5 catalyzes Histone H4 peptide which is biotin tagged to the Lysine amino acid at carboxyl end, in presence of S-adenosyl-1-methionine (SAM) to methylate the peptide. The antibody specific to mono methylated H4 peptide (H4R3) with Ig conjugate binds to the methylated peptide, indirectly binding to the Europium lanthanide. […]
The compound dilutions were prepared as 7.5% DMSO stock solutions in assay buffer. […] The plates were then read on Victor-3 with Excitation at 340 nm and Emissions collected at 615 and 665 nm in TR-FRET protocol. […]
For orientation: In TR-FRET formats the signal depends on donor and acceptor labels being close together.

The compound `N#CC1CCN(c2cnc(CN3CCN(C[C@H](O)CN4CCc5ccccc5C4)C3=O)cn2)CC1` [Compound 10, (R)-1-(5-((3-(3-(3,4-dihydroisoquinolin-2(1H)-yl)-2-hydroxypropyl)-2-oxoimidazolidin-1-yl)methyl)pyrazin-2-yl)piperidine-4-carbonitrile] registered an IC50 of 52 nM. This counts as double-digit nanomolar. In the case of `CN(C)S(=O)(=O)C1CCN(c2ccc(CN3CCN(C[C@H](O)CN4CCc5ccccc5C4)C3=O)nc2)CC1` [Compound 15, (R)-1-(6-((3-(3-(3,4-dihydroisoquinolin-2(1H)-yl)-2-hydroxypropyl)-2-oxoimidazolidin-1-yl)methyl)pyridin-3-yl)-N,N-dimethylpiperidine-4-sulfonamide] it was 12 nM.
